This note sets out measurements from a collection of fitness landscapes (doi:10.1016/j.celrep.2020.107928).

Whole data set: some 81,000 sequences, median “one-hybrid fitness for binding NBS DNA” near -0.1, cut for the highest 2% near 0.36. The list shows a part of the results.

To fix the notation:
B1: Caulobacter ParB omega fusion; a variant is named by its letters at X, in order, B8GW30 (parent)
chain: MESVVVGEPGMSEGRRGLGRGLSALLGEVDAAPAQAPGEQLGGSREAPIEILQRNPDQPRRTFREEDLEDLSNSIREKGVLQPILVRPSPDTAGEYQIVAGERAWRAAQRAGLKTVPIMVRELDDLAVLEIGIIENVQRADLNVLEEALSYKVLMEKFERTQENIAQTIGKSXSHVANXMRLLXLPDEVQSYLVSGELTAXHARAIAAAADPVALAKQIIEGGLSVRETEALARKAPNLSAGKSKGGRPPRVKDTDTQALESDLSSVLGLDVSIDHRGSTGTLTITYATLEQLDDLCNRLTRGI

Variants of B1 are the subject of the assay. As to the kind of experiment: one-hybrid fitness for binding NBS DNA (the Noc-binding site; scaled: cognate 1, non-cognate 0); higher = stronger binding. The settings on record: with NBS DNA site. Summed up:
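Fitness is the rescaled log change in variant-to-wild-type read ratio, measured by Illumina sequencing of plasmids before and after bacterial one-hybrid selection. The scale puts cognate at 1 and non-cognate at 0. Selection of Caulobacter ParB libraries, four specificity codons randomised, took place in E. coli USO with a HIS3 reporter, site 19 bp from the promoter, over 48 hours at 37°C on M9-minus-histidine with 0.1 mM IPTG and 5 mM 3-AT.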
With VDEW, the “one-hybrid fitness for binding NBS DNA” value was not above 0.2.
To YNYS belongs not above 0.2.
The result for YRCV reads not above 0.2; that for PLIY, not above 0.2.
As for NHES, the “one-hybrid fitness for binding NBS DNA” value was not above 0.2.
For the variant HGTK, the “one-hybrid fitness for binding NBS DNA” value was not above 0.2.
To RAPN belongs not above 0.2.
The result for MALT reads not above 0.2; that for RAPW, not above 0.2; that for MTTY, not above 0.2.
To PREN belongs not above 0.2.
On to NQEL, for which the “one-hybrid fitness for binding NBS DNA” value is not above 0.2.
The result for QTEC reads not above 0.2.
Regarding AYVT, the “one-hybrid fitness for binding NBS DNA” value is not above 0.2.
The result for TNHS reads not above 0.2.
Consider ATQR, for which the “one-hybrid fitness for binding NBS DNA” value was not above 0.2.
To FKSG belongs not above 0.2; to AGKT, not above 0.2; to GGCL, not above 0.2.
The result for AWHL reads not above 0.2; that for STPD, not above 0.2; that for SLHS, not above 0.2.
To LYDR belongs not above 0.2; to WHYR, not above 0.2.
As to RLRY, the “one-hybrid fitness for binding NBS DNA” value was 0.291.
For KSHM, the “one-hybrid fitness for binding NBS DNA” value is not above 0.2.
Take TLMG: the “one-hybrid fitness for binding NBS DNA” value was not above 0.2.
To TMQN belongs not above 0.2.
Take HVKR: the “one-hybrid fitness for binding NBS DNA” value was not above 0.2.
For the variant TCLR, the “one-hybrid fitness for binding NBS DNA” value was not above 0.2.
To RRWG belongs 0.216.
To SENS belongs not above 0.2.
As to GITS, the “one-hybrid fitness for binding NBS DNA” value was not above 0.2.
In the case of CTSG, the “one-hybrid fitness for binding NBS DNA” value is not above 0.2.
To WMCG belongs not above 0.2.
To QQHC belongs not above 0.2; to WIST, not above 0.2; to QNRF, not above 0.2.
Regarding PKSD, the “one-hybrid fitness for binding NBS DNA” value is not above 0.2.
The result for CQQC reads not above 0.2; that for CARG, not above 0.2; that for RHVA, not above 0.2.
Consider QEYM, for which the “one-hybrid fitness for binding NBS DNA” value is not above 0.2.
As to RDER, the “one-hybrid fitness for binding NBS DNA” value was not above 0.2.
With TMFV, the “one-hybrid fitness for binding NBS DNA” value was not above 0.2.
The result for TTVN reads not above 0.2; that for PNSW, not above 0.2; that for VHAF, not above 0.2.
As for DMGS, the “one-hybrid fitness for binding NBS DNA” value was not above 0.2.
For the variant MKES, the “one-hybrid fitness for binding NBS DNA” value was not above 0.2.
For the variant DNYC, the “one-hybrid fitness for binding NBS DNA” value is not above 0.2.
The result for SRAF reads not above 0.2.
To LITL belongs not above 0.2; to TVIS, not above 0.2; to RIRP, not above 0.2.
On to IVLI, for which the “one-hybrid fitness for binding NBS DNA” value was not above 0.2.
For the variant NNVN, the “one-hybrid fitness for binding NBS DNA” value was not above 0.2.
In the case of PKKM, the “one-hybrid fitness for binding NBS DNA” value was not above 0.2.
The result for VLIP reads not above 0.2; that for RCWM, not above 0.2; that for GQSK, not above 0.2.
Take EFNL: the “one-hybrid fitness for binding NBS DNA” value was not above 0.2.
The result for MPPV reads not above 0.2; that for FCQL, not above 0.2.
To VCVC belongs not above 0.2; to GDAD, not above 0.2; to FHST, not above 0.2.
For EWHR, the “one-hybrid fitness for binding NBS DNA” value was not above 0.2.
The result for GYRG reads not above 0.2.
The result for GEFG reads not above 0.2.
To FMNM belongs not above 0.2; to RPRQ, not above 0.2.
With YPWR, the “one-hybrid fitness for binding NBS DNA” value was not above 0.2.
To SVEE belongs not above 0.2.
Consider QGSK, for which the “one-hybrid fitness for binding NBS DNA” value was not above 0.2.
Take PQKP: the “one-hybrid fitness for binding NBS DNA” value is not above 0.2.
With EKTL, the “one-hybrid fitness for binding NBS DNA” value is not above 0.2.
To QWAS belongs not above 0.2; to RGER, not above 0.2.
To YHIR belongs not above 0.2; to RFRP, not above 0.2.
To AILW belongs not above 0.2; to CQWC, not above 0.2; to PTWG, not above 0.2.
With KWGC, the “one-hybrid fitness for binding NBS DNA” value was not above 0.2.
As for AMRH, the “one-hybrid fitness for binding NBS DNA” value was not above 0.2.
The result for DTMT reads not above 0.2; that for NFQR, not above 0.2.
With RSIL, the “one-hybrid fitness for binding NBS DNA” value was not above 0.2.
For PYKL, the “one-hybrid fitness for binding NBS DNA” value is not above 0.2.
The result for HVCS reads not above 0.2.
On to QISK, for which the “one-hybrid fitness for binding NBS DNA” value was not above 0.2.
To QWRK belongs not above 0.2; to IDAG, not above 0.2; to NEFC, not above 0.2.
The result for GSPR reads not above 0.2.
In the case of KPTV, the “one-hybrid fitness for binding NBS DNA” value was not above 0.2.
The result for PAQW reads not above 0.2; that for NGMI, not above 0.2; that for YPSD, not above 0.2.
As for SSRC, the “one-hybrid fitness for binding NBS DNA” value was not above 0.2.
For ISPK, the “one-hybrid fitness for binding NBS DNA” value is not above 0.2.
Turning to GAVR, the “one-hybrid fitness for binding NBS DNA” value was not above 0.2.
Regarding KKGD, the “one-hybrid fitness for binding NBS DNA” value was not above 0.2.
Consider NVCW, for which the “one-hybrid fitness for binding NBS DNA” value is not above 0.2.
Take LWPR: the “one-hybrid fitness for binding NBS DNA” value was not above 0.2.
To VAPY belongs not above 0.2; to KISD, not above 0.2; to NACT, not above 0.2.
To HCLQ belongs not above 0.2; to EKGR, not above 0.2; to SCSF, not above 0.2.
For the variant LSHN, the “one-hybrid fitness for binding NBS DNA” value was not above 0.2.
The result for RPQW reads not above 0.2; that for CPTK, not above 0.2.
As to VGHH, the “one-hybrid fitness for binding NBS DNA” value was not above 0.2.
To PSLR belongs not above 0.2; to HYVE, not above 0.2.
Consider DYSR, for which the “one-hybrid fitness for binding NBS DNA” value was not above 0.2.
As to HRNC, the “one-hybrid fitness for binding NBS DNA” value is not above 0.2.
The result for TCRM reads not above 0.2.
The result for GIYR reads not above 0.2.
The result for AMYG reads not above 0.2; that for CKKV, not above 0.2; that for SWSS, not above 0.2.
Regarding QAMV, the “one-hybrid fitness for binding NBS DNA” value was not above 0.2.
Turning to VLLY, the “one-hybrid fitness for binding NBS DNA” value was not above 0.2.
Take KAIT: the “one-hybrid fitness for binding NBS DNA” value is not above 0.2.
For the variant YTPC, the “one-hybrid fitness for binding NBS DNA” value was not above 0.2.
The result for AMFN reads not above 0.2; that for WKIS, not above 0.2.
The result for WKDG reads not above 0.2; that for VYWG, not above 0.2.
Take RMMK: the “one-hybrid fitness for binding NBS DNA” value was not above 0.2.
EQWS: the “one-hybrid fitness for binding NBS DNA” value was not above 0.2.
As for QIWP, the “one-hybrid fitness for binding NBS DNA” value was not above 0.2.
For IYGT, the “one-hybrid fitness for binding NBS DNA” value was not above 0.2.
Regarding VKAC, the “one-hybrid fitness for binding NBS DNA” value was not above 0.2.
Consider IGLW, for which the “one-hybrid fitness for binding NBS DNA” value was not above 0.2.
To NFGR belongs not above 0.2.
To MADF belongs not above 0.2; to SNGQ, not above 0.2.
With RINY, the “one-hybrid fitness for binding NBS DNA” value is not above 0.2.
The result for TRPC reads not above 0.2; that for QNRL, not above 0.2; that for KIRC, not above 0.2.
To KRHW belongs not above 0.2; to AIIY, not above 0.2; to EMMY, not above 0.2.
The result for VTFS reads not above 0.2; that for SMKH, not above 0.2; that for GTVD, not above 0.2.
Turning to HERS, the “one-hybrid fitness for binding NBS DNA” value was not above 0.2.
